Source: paper PMC9911399, “Two distinct binding modes provide the RNA-binding protein RbFox with extraordinary sequence specificity”
Where a chain is given by its changes, count along the chain named. Some of the results follow.

T1: RBFOX1 RRM RbFoxmut (Fox-RRM*) (Homo sapiens, UniProt Q9NWB1 109-208, R118D;E147R;N151S;E152T)
T1 sequence: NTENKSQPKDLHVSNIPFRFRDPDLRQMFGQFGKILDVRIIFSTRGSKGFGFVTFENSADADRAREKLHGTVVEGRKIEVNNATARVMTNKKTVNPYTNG

B1: AAAUUUU (DNA:RNA)
RNA: GGGAGACCGGAAUUCAGAUUGUCCAAAUUUUUUAAAUCCCGUCGUAGCCACCA
DNA 1: CAATCTGAATTCCGGTCTCCC
DNA 2: TGGTGGCTACGACGGGATT
B2: AUUAUUU (DNA:RNA)
RNA: B1 RNA with A26U, A27U, U28A
DNA 1: CAATCTGAATTCCGGTCTCCC
DNA 2: TGGTGGCTACGACGGGATT
B3: AGGCCAU (DNA:RNA)
RNA: B1 RNA with A26G, A27G, U28C, U29C, U30A
DNA 1: CAATCTGAATTCCGGTCTCCC
DNA 2: TGGTGGCTACGACGGGATT
B4: CUGAAGG (DNA:RNA)
RNA: GGGAGACCGGAAUUCAGAUUGUCCCUGAAGGUUAAAUCCCGUCGUAGCCACCA
DNA 1: CAATCTGAATTCCGGTCTCCC
DNA 2: TGGTGGCTACGACGGGATT
B5: GGGGACC (DNA:RNA)
RNA: B4 RNA with C25G, U26G, A28G, G30C, G31C
DNA 1: CAATCTGAATTCCGGTCTCCC
DNA 2: TGGTGGCTACGACGGGATT
B6: UCGUGGG (DNA:RNA)
RNA: B4 RNA with C25U, U26C, A28U, A29G
DNA 1: CAATCTGAATTCCGGTCTCCC
DNA 2: TGGTGGCTACGACGGGATT
B7: CACGAAU (DNA:RNA)
RNA: B1 RNA with A25C, A27C, U28G, U29A, U30A
DNA 1: CAATCTGAATTCCGGTCTCCC
DNA 2: TGGTGGCTACGACGGGATT
B8: CGUCUUU (DNA:RNA)
RNA: B1 RNA with A25C, A26G, A27U, U28C
DNA 1: CAATCTGAATTCCGGTCTCCC
DNA 2: TGGTGGCTACGACGGGATT
B9: AAAAGUC (DNA:RNA)
RNA: B1 RNA with U28A, U29G, U31C
DNA 1: CAATCTGAATTCCGGTCTCCC
DNA 2: TGGTGGCTACGACGGGATT

biological target: T1, RBFOX1 RRM RbFoxmut (Fox-RRM*); assay: EMSA; HiTS-Eq, 1 nM pool, 10 min; buffer printed only for the single-RNA assays: 10 mM Tris pH 7.5, 150 mM NaCl, 3.4 mM EDTA, 0.001% NP-40, 30 C; conditions: tags: His6 N-terminal (pET28a); label: 5' 32P
Procedure, shortened: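 A pool of RNA with 7 randomized nucleotides, 5′-radiolabelled and with DNA-annealed flanks, was equilibrated at 1 nM for 10 min in 50 µL with purified RbFox RRM, wild type or mutant, across increasing protein concentrations. Free RNA was separated by 8% native PAGE, excised, reverse-transcribed, barcoded by PCR and sequenced. Relative association constants were obtained from read-count changes of each RNA species versus the control reaction and normalised to the cognate motif.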

Binder	binding signal
B1	0.0977 KA relative to UGCAUGU
B2	0.13 KA relative to UGCAUGU
B3	0.0666 KA relative to UGCAUGU
B4	0.0966 KA relative to UGCAUGU
B5	0.108 KA relative to UGCAUGU
B6	0.113 KA relative to UGCAUGU
B7	0.116 KA relative to UGCAUGU
B8	0.0593 KA relative to UGCAUGU
B9	0.0411 KA relative to UGCAUGU
